Where a chain is given by its changes, count along the chain named. These are yes or no findings as the source states them, for the method shown. In cells and extracts the contact can be indirect. Some results given as binding are weak or reduced against the parent protein; the word gives no strength. Tags and fused reporters may be left off the sequences shown.
Tests used:
[1] = target: T1, FLAG-GMCL2 (human) (UniProt Q8NEA9); assay: co-IP; FLAG-tagged GMCL1 (WT or mutants) or GMCL2 transfected in HEK293T (MLN4924 3 h in Figure 1C), FLAG-M2 beads, 4°C 2 h, lysis buffer 25 mM Tris-HCl pH 8.0, 150 mM NaCl, 0.2% NP-40; blots for endogenous 53BP1 and CUL3
T1 sequence: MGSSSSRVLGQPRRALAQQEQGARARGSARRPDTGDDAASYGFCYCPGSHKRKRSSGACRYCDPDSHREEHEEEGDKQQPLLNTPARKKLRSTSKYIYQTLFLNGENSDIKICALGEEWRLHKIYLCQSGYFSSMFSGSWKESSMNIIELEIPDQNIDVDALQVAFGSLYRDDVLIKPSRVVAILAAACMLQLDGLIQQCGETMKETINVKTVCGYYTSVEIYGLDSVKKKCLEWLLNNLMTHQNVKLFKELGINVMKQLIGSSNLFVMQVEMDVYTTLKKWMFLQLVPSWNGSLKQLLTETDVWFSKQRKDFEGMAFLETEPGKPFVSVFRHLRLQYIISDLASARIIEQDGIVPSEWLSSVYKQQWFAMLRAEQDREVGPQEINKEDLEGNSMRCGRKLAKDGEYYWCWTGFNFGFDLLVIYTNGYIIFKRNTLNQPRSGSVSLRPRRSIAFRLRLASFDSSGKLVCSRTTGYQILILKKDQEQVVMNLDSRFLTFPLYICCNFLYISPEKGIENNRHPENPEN

By UniProt entry, the sequences of proteins in these tests, tags left out.
UniProt Q12888: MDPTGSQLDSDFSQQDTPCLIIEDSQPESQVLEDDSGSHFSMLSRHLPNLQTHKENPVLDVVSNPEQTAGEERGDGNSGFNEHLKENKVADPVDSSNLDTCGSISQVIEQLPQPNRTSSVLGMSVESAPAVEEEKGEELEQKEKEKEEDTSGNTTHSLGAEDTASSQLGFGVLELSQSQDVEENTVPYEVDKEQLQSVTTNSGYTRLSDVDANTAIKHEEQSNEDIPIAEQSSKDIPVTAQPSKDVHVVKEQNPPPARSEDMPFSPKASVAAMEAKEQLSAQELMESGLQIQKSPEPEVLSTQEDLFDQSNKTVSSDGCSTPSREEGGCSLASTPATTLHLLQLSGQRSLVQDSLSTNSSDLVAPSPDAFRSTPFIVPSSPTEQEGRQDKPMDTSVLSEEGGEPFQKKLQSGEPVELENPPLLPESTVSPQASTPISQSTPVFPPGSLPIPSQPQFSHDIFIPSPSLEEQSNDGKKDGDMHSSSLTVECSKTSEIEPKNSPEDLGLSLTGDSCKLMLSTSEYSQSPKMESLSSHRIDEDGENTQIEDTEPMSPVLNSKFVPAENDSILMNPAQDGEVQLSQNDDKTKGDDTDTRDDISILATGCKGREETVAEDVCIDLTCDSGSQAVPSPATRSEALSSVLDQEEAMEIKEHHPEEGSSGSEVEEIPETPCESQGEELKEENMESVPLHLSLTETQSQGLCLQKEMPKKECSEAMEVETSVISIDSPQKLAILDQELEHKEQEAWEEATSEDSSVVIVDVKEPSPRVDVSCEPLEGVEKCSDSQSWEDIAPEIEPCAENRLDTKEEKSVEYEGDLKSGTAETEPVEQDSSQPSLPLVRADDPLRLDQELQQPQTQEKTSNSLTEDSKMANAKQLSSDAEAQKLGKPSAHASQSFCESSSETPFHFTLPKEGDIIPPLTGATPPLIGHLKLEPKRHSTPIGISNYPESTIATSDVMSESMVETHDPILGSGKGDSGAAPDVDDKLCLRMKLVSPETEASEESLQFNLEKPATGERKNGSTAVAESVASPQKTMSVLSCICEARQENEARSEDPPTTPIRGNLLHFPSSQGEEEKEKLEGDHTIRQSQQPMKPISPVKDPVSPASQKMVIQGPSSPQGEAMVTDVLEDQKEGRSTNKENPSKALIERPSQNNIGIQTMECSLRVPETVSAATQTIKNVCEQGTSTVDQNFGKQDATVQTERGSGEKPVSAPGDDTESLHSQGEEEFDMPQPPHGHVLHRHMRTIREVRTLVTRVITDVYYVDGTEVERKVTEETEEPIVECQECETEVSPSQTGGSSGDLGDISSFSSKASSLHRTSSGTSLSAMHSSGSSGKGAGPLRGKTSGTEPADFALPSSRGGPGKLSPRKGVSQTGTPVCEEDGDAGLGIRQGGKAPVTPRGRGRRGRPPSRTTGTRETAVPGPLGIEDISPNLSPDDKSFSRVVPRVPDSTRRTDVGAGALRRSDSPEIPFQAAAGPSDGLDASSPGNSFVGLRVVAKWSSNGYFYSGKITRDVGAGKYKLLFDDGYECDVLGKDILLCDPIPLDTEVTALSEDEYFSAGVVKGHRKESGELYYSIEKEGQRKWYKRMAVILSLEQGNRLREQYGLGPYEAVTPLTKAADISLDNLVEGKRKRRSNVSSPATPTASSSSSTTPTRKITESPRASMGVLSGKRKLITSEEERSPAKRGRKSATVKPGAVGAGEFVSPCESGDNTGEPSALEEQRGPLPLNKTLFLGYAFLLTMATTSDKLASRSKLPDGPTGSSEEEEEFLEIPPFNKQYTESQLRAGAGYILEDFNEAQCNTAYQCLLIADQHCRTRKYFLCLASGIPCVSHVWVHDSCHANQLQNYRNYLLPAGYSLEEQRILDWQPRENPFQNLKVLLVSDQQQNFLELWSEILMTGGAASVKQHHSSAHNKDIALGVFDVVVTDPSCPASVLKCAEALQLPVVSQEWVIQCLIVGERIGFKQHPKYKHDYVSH

[2] = target: T2, FLAG-GMCL1 R433A (human) (UniProt Q96IK5); assay: as above
T2 sequence: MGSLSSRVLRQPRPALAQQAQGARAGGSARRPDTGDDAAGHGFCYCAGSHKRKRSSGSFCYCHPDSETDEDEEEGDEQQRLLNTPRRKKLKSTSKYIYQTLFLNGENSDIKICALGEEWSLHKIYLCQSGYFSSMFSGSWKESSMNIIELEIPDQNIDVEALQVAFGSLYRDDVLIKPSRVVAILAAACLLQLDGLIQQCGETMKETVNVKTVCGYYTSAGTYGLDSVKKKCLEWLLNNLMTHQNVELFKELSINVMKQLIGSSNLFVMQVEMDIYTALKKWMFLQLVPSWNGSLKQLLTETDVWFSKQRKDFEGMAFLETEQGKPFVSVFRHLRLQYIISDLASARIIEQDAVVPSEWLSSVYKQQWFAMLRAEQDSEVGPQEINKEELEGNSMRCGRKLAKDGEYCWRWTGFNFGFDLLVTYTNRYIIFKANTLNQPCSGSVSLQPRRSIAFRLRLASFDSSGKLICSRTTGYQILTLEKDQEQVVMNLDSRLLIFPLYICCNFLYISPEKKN

[3] = target: T3, FLAG-GMCL1 WT (wild-type human germ cell-less protein-like 1) (human) (UniProt Q96IK5); assay: as above
T3 sequence: T2 sequence with A433R

[4] = target: T4, endogenous GMCL1 with a knocked-in C-terminal 2×Flag tag (GMCL1 FLAG knock-in HCT116) (human (endogenous in HCT116)) (UniProt Q96IK5); assay: co-IP; M phase-synchronized GMCL1 FLAG knock-in HCT116 cells; GMCL1 immunoprecipitated with FLAG beads, blots for endogenous CUL3 and 53BP1
T4 sequence: T2 sequence with A433R

Substance	binding [1]	binding [2]	binding [3]	binding [4]
endogenous 53BP1 (p53-binding protein 1), HEK293T (from UniProt Q12888 1-1972)	no binding	no binding	binds	
endogenous 53BP1, HCT116 (from UniProt Q12888 1-1972)				binds

Reference: article doi:10.1101/2025.03.18.643855
